Consider 24 molecules from patent US11618753B2 (priority 2018, dated 2023).

Counter-ions that a name gives are not always drawn.

The assay has as its system MLKL phosphorylation, HT29-L23 human colorectal adenocarcinoma cells. Put plainly: cells. Particulars: read-out: pMLKL HCS Cell Assay (IC50, uM).
As a reminder, the IC50 is the concentration that inhibits the measured activity by half. For the molecule `COc1ncc(-c2cc(CN3CCC(F)(F)CC3)c3c(N)ncnn23)cc1C(=O)N[C@@H]1CN(C(=O)c2c(F)cccc2Cl)C[C@@H]1F` [Example 1270, 5-{4-amino-5-[(4,4-difluoropiperidin-1-yl)methyl]pyrrolo[2,1-f][1,2,4]triazin-7-yl}-N-[(3R,4S)-1-(2-chloro-6-fluorobenzoyl)-4-fluoropyrrolidin-3-yl]-2-methoxypyridine-3-carboxamide], the IC50 stood at 0.00079 µM.
As for `Cc1cc(F)c(-c2cc(C(F)(F)F)c3c(N)ncnn23)cc1C(=O)N[C@@H]1CN(C(=O)c2cnccc2C(F)(F)F)C[C@@H]1F` [Example 855, 5-[4-amino-5-(trifluoromethyl)pyrrolo[2,1-f][1,2,4]triazin-7-yl]-4-fluoro-N-[(3R,4S)-4-fluoro-1-[4-carbonyl]pyrrolidin-3-yl]-2-methylbenzamide], the figure is 0.041 µM; as for `CC(CCNC(=O)c1cc(-c2cc(C(F)(F)F)c3c(N)ncnn23)ccc1F)c1ccccc1` (stereo not drawn) [Example 243, 5-[4-amino-5-(trifluoromethyl)pyrrolo[2,1-f][1,2,4]triazin-7-yl]-2-fluoro-N-(3-phenylbutyl)benzamide], 0.045 µM; as for `COc1ncc(-c2cc(CN(C)C)c3c(N)ncnn23)cc1C(=O)N[C@@H]1CN(C(=O)C2CC(F)(F)C2)C[C@@H]1F` [Example 485, 5-{4-amino-5-[(dimethylamino)methyl]pyrrolo[2,1-f][1,2,4]triazin-7-yl}-N-[(3R,4S)-1-(3,3-difluorocyclobutanecarbonyl)-4-fluoropyrrolidin-3-yl]-2-methoxypyridine-3-carboxamide], 0.0029 µM.
As for `COc1ncc(-c2c(F)cc3c(N)ncnn23)cc1C(=O)N[C@@H]1CN(C(=O)c2ccc(F)cc2)C[C@@H]1F` [Example 512, 5-{4-amino-6-fluoropyrrolo[2,1-f][1,2,4]triazin-7-yl}-N-[(3R,4S)-4-fluoro-1-(4-fluorobenzoyl)pyrrolidin-3-yl]-2-methoxypyridine-3-carboxamide], the figure is 0.097 µM; as for `Cc1ncc(-c2cc(C(F)(F)F)c3c(N)ncnn23)cc1C(=O)Nc1cn(Cc2ccccc2)cn1` [Example 1724, 5-(4-amino-5-(trifluoromethyl)pyrrolo[2,1-f][1,2,4]triazin-7-yl)-N-(1-benzyl-1H-imidazol-4-yl)-2-methylnicotinamide], 0.00061 µM; as for `Nc1ncnn2c(-c3ccc(OC(F)(F)F)c(C(=O)N[C@@H]4CN(C(=O)C5CC(F)C5)C[C@@H]4F)c3)cc(C(F)(F)F)c12` (stereo partly drawn) [Example 1053, 5-[4-amino-5-(trifluoromethyl)pyrrolo[2,1-f][1,2,4]triazin-7-yl]-N-[(3R,4S)-4-fluoro-1-(3-fluorocyclobutanecarbonyl)pyrrolidin-3-yl]-2-(trifluoromethoxy)benzamide], 0.231 µM.
For `COc1ncc(-c2ccc3c(N)nc(F)nn23)cc1C(=O)N[C@@H]1CN(C(=O)[C@@](C)(O)C(F)(F)F)C[C@@H]1F` [Example 1702, 5-(4-amino-2-fluoropyrrolo[2,1-f][1,2,4]triazin-7-yl)-N-((3R,4S)-4-fluoro-1-((R)-3,3,3-trifluoro-2-hydroxy-2-methylpropanoyl)pyrrolidin-3-yl)-2-methoxynicotinamide] the value was 0.294 µM; for `Cc1ccc(-c2cc(C(F)(F)F)c3c(N)ncnn23)c(F)c1C(=O)N[C@@H]1CN(C(=O)C2CCC(F)(F)C2)C[C@@H]1F` (stereo partly drawn) [Example 762, 3-[4-amino-5-(trifluoromethyl)pyrrolo[2,1-f][1,2,4]triazin-7-yl]-N-[(3R,4S)-1-(3,3-difluorocyclopentanecarbonyl)-4-fluoropyrrolidin-3-yl]-2-fluoro-6-methylbenzamide], 0.002 µM.
Consider `COc1ncc(-c2cc(C(F)(F)F)c3c(N)ncnn23)cc1C(=O)N[C@@H]1CN(C(=O)OCC2CC2)C[C@@H]1F` [Example 1439, cyclopropylmethyl (3R,4S)-3-{5-[4-amino-5-(trifluoromethyl)pyrrolo[2,1-f][1,2,4]triazin-7-yl]-2-methoxypyridine-3-amido}-4-fluoropyrrolidine-1-carboxylate], for which the IC50 is 0.0019 µM.
As for `Cc1nc(C)c(-c2cc(C(F)(F)F)c3c(N)ncnn23)cc1C(=O)N[C@@H]1CN(C(=O)c2ccncc2F)C[C@@H]1F` [Example 1192, 5-[4-amino-5-(trifluoromethyl)pyrrolo[2,1-f][1,2,4]triazin-7-yl]-N-[(3R,4S)-4-fluoro-1-(3-fluoropyridine-4-carbonyl)pyrrolidin-3-yl]-2,6-dimethylpyridine-3-carboxamide], the figure is 0.098 µM; as for `Nc1ncnn2c(-c3cccc(C(=O)NCCC(O)c4ccccc4)c3)c(F)cc12` (racemic) [Example 70, 3-{4-amino-6-fluoropyrrolo[2,1-f][1,2,4]triazin-7-yl}-N-(3-hydroxy-3-phenylpropyl) benzamide], 0.209 µM.
As for `Nc1ncnn2c(-c3ccc(F)c(C(=O)N[C@@H]4CN(C(=O)c5ccc(F)cc5)C[C@@H]4F)c3)cc(C(F)(F)F)c12` [Example 256, 5-[4-amino-5-(trifluoromethyl)pyrrolo[2,1-f][1,2,4]triazin-7-yl]-2-fluoro-N-[(3R,4S)-4-fluoro-1-(4-fluorobenzoyl)pyrrolidin-3-yl]benzamide], the figure is 0.064 µM; as for `CC(C(=O)N1C[C@H](F)[C@H](NC(=O)c2cc(-c3cc(C(F)(F)F)c4c(N)ncnn34)ccc2C(F)(F)F)C1)C(F)(F)F` (stereo partly drawn) [Example 907], 0.036 µM; as for `Cc1ccc(-c2cc(CN3CCC(F)(F)CC3)c3c(N)ncnn23)cc1C(=O)N[C@@H]1CN(C(=O)C(C)(C)F)C[C@@H]1F` [Example 1643, 5-{4-amino-5-[(4,4-difluoropiperidin-1-yl)methyl]pyrrolo[2,1-f][1,2,4]triazin-7-yl}-N-[(3R,4S)-4-fluoro-1-(2-fluoro-2-methylpropanoyl)pyrrolidin-3-yl]-2-methylbenzamide], 0.0014 µM.
As for `[2H]C([2H])([2H])Oc1ncc(-c2cc(CN3CC(F)(F)C3)c3c(N)ncnn23)cc1C(=O)N[C@@H]1CN(S(=O)(=O)C2CC2)C[C@@H]1F` [Example 1284, 5-{4-amino-5-[(3,3-difluoroazetidin-1-yl)methyl]pyrrolo[2,1-f][1,2,4]triazin-7-yl}-N-[(3R,4S)-1-(cyclopropanesulfonyl)-4-fluoropyrrolidin-3-yl]-2-(methoxy-d3)nicotinamide], the figure is 0.0017 µM; as for `CC(C)(C(=O)N1C[C@H](F)[C@H](NC(=O)c2cccc(-c3cc(CN4CC(F)(F)C4)c4c(N)ncnn34)c2)C1)C(F)(F)F` [Example 1176, 3-{4-amino-5-[(3,3-difluoroazetidin-1-yl)methyl]pyrrolo[2,1-f][1,2,4]triazin-7-yl}-N-[(3R,4S)-4-fluoro-1-(3,3,3-trifluoro-2,2-dimethylpropanoyl)pyrrolidin-3-yl]benzamide], 0.0014 µM.
On to `COc1ncc(-c2cc(CN3CC(F)(F)C3)c3c(N)ncnn23)cc1C(=O)N[C@@H]1CN(C(=O)C(C)(C)C)C[C@@H]1F` [Example 1619, 5-{4-amino-5-[(3,3-difluoroazetidin-1-yl)methyl]pyrrolo[2,1-f][1,2,4]triazin-7-yl}-N-[(3R,4S)-1-(2,2-dimethylpropanoyl)-4-fluoropyrrolidin-3-yl]-2-methoxypyridine-3-carboxamide], for which the IC50 was determined as 0.0013 µM.
For `[2H]C([2H])([2H])Oc1ncc(-c2cc(C(F)(F)F)c3c(N)ncnn23)cc1C(=O)N[C@@H]1CN(C(=O)CC(C)C)C[C@@H]1F` [Example 387, 5-[4-amino-5-(trifluoromethyl)pyrrolo [2,1-f][1,2,4]triazin-7-yl]-N-[(3R,4S)-4-fluoro-1-(3-methylbutanoyl)pyrrolidin-3-yl]-2-(deutero)methoxypyridine-3-carboxamide, TFA] the value was 0.015 µM; for `Cc1c(F)cc(-c2cc(C(F)(F)F)c3c(N)ncnn23)cc1C(=O)N[C@@H]1CN(C(=O)C(C)C(F)(F)F)C[C@@H]1F` (stereo partly drawn) [Example 1319, 5-[4-amino-5-(trifluoromethyl)pyrrolo-[2,1-f][1,2,4]triazin-7-yl]-3-fluoro-N-[(3R,4S)-4-fluoro-1-(3,3,3-trifluoro-2-methylpropanoyl)pyrrolidin-3-yl]-2-methylbenzamide], 0.0084 µM.
For `Cc1c(F)cc(-c2cc(C(F)(F)F)c3c(N)ncnn23)cc1C(=O)N[C@@H]1CN(C(=O)CC(C)(O)C(F)(F)F)C[C@@H]1F` (stereo partly drawn) [Example 1318, 5-[4-amino-5-(trifluoromethyl)pyrrolo-[2,1-f][1,2,4]triazin-7-yl]-3-fluoro-N-[(3R,4S)-4-fluoro-1-(4,4,4-trifluoro-3-hydroxy-3-methylbutanoyl)pyrrolidin-3-yl]-2-methylbenzamide] the value was 0.0036 µM.
For `COc1ncc(-c2cc(Cn3cnc(Cl)c3)c3c(N)ncnn23)cc1C(=O)N[C@@H]1CN(C(=O)C2CC(F)(F)C2)C[C@@H]1F` [Example 1706, 5-(4-amino-5-((4-chloro-1H-imidazol-1-yl)methyl)pyrrolo[2,1-f][1,2,4]triazin-7-yl)-N-((3R,4S)-1-(3,3-difluorocyclobutane-1-carbonyl)-4-fluoropyrrolidin-3-yl)-2-methoxynicotinamide] the value was 0.0075 µM; for `COc1cc(C(=O)N[C@@H]2CN(C(=O)[C@@](C)(O)C(F)(F)F)C[C@@H]2F)cc(-c2cc(C(F)(F)F)c3c(N)ncnn23)c1` [Example 578, 3-[4-amino-5-(trifluoromethyl)pyrrolo[2,1-f][1,2,4]triazin-7-yl]-N-[(3R,4S)-4-fluoro-1-[(2R)-3,3,3-trifluoro-2-hydroxy-2-methylpropanoyl]pyrrolidin-3-yl]-5-methoxybenzamide], 0.0067 µM.
Consider `Cc1ccc(-c2cc(C(F)(F)F)c3c(N)ncnn23)cc1C(=O)N[C@@H]1CN(C(=O)c2cccc(F)c2F)C[C@@H]1F` [Example 1039, 5-[4-amino-5-(trifluoromethyl)pyrrolo[2,1-f][1,2,4]triazin-7-yl]-N-[(3R,4S)-1-(2,3-difluorobenzoyl)-4-fluoropyrrolidin-3-yl]-2-methylbenzamide], for which the half-inhibitory concentration (IC50) worked out at 0.00078 µM.
